92 compounds from PubChem BioAssay AID360 (National Center for Advancing Translational Sciences (NCATS), 2006) can be followed below.

Screen size: about 48,000 compounds; about 550 (1.1%) were called active. Inconclusive results (about 4%) are left out. Rule as the data show it: active = potency below about 15 µM; inconclusive = mostly about 16 µM to 33 µM; inactive = weaker than that. Some of the results follow. A value given as a limit tells only on which side of the number the result lay.
Potency is read from the fitted curve at half-maximal effect.

Chain of UniProt P04062 (P04062 whole entry, looked up): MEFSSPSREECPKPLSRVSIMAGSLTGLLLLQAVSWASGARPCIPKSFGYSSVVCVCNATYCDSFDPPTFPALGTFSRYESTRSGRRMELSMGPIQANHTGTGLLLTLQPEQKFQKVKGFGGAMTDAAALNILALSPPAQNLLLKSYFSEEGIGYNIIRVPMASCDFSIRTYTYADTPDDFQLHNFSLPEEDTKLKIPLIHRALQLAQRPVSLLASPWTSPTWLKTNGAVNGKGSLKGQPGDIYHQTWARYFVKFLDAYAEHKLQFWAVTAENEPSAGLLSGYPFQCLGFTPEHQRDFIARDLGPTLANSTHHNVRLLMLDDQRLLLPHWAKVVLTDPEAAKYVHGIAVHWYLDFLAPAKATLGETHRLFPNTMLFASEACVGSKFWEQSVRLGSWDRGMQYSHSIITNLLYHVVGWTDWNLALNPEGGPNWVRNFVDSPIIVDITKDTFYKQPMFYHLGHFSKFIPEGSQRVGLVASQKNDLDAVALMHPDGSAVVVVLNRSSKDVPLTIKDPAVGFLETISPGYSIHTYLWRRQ

The target of the assay is Lysosomal acid glucosylceramidase (Homo sapiens) (UniProt P04062). Kind of assay: Glucocerebrosidase.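 Also: the screen sought inhibitors.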 Particulars: purified enzyme, resorufin glucoside fluorescence (screen aimed at inhibitors), 20 min. The method, boiled down:
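Compounds titrated against 0.2 nM normal enzyme, 30 uM resorufin beta-D-glucopyranoside substrate, citrate/phosphate buffer with taurocholate and tween-20, pH 5.9. Reaction ran 20 min at room temperature; fluorescence (Ex 548/Em 600) gave AC50.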
For the compound `Cc1cc2cc(CCNC(=O)C(C)C)c(=O)[nH]c2cc1C`, the Potency is inactive: > 76.9 µM.

For `CC(=O)c1c(N)c(C#N)c(C)n1-c1ccc(Br)cc1`, the Potency was inactive: > 76.9 µM.

Regarding `Cc1ccc(-n2c(=O)cc(N3CC(C)CC(C)C3)[nH]c2=O)cc1` (configuration not stated), the Potency was inactive: > 76.9 µM.

In the case of `O=C(O)Cn1c(-c2cscn2)nc2ccccc21`, the Potency was inactive: > 76.9 µM.

`CN(C)CCn1c(C(=O)Nc2ccccc2)cc2ccccc21`: the Potency is inactive: > 76.9 µM.

Take `OC(CNCC(c1ccco1)N1CCCCC1)c1ccccc1` (configuration not stated): the Potency is inactive: > 76.9 µM.

Turning to `Cc1[nH]nc2c1C1(CCC(c3ccccc3)CC1)C(C#N)=C(N)O2` (configuration not stated), the Potency was inactive: > 76.9 µM.

As for `Cc1occc1-c1nnc(SCC(=O)c2ccc(Cl)cc2)n1CC1CCCO1` (configuration not stated), the Potency is inactive: > 76.9 µM.

`O=C(c1cccs1)c1no[n+]([O-])c1C(=O)c1cccs1`: the Potency is inactive: > 76.9 µM.

Consider `COc1ccc(N(CC(O)Cn2nnc3ccccc32)S(=O)(=O)c2ccc(C)cc2)cc1` (configuration not stated), for which the Potency is inactive: > 76.9 µM.

Turning to `O=C(CSc1nc2ccccc2s1)N1CCN(C(=O)c2ccco2)CC1`, the Potency was inactive: > 76.9 µM.

For `CC(C)=CC(=O)OCC(=O)Nc1ccc(F)cc1Cl`, the Potency was inactive: > 76.9 µM.

Regarding `Clc1ccc(NCc2nnc3n2CCCCC3)cc1`, the Potency is inactive: > 76.9 µM.

Take `COc1ccc(NC(=O)c2ccccc2NS(C)(=O)=O)cc1OC`: the Potency is inactive: > 76.9 µM.

`COc1ccc(NC(=O)CCC2COc3ccccc3O2)c(OC)c1` (configuration not stated): the Potency is inactive: > 76.9 µM.

With `CCC12CN3CC(CC)(CN(C1)C31C(=O)N(C)c3ccc(C)cc31)C2=O` (configuration not stated), the Potency was inactive: > 76.9 µM.

`CCC(C)NC(=O)CSc1nc2ccc(N3CCOCC3)cc2c(=O)n1CCc1ccccc1` (configuration not stated): the Potency is inactive: > 76.9 µM.

Consider `CCC(Oc1ccccc1)C(=O)Nc1nc2ccccc2[nH]1` (configuration not stated), for which the Potency was inactive: > 76.9 µM.

Regarding `COC(=O)c1cccc(NC(=O)CSc2ncn[nH]2)c1`, the Potency is inactive: > 76.9 µM.

Take `CCn1[nH]c(=O)c(=Nc2c(C)n(C)n(-c3ccccc3)c2=O)cc1-c1ccc(Cl)cc1`: the Potency was inactive: > 76.9 µM.

`CCc1nnc(NC(=O)CCC(=O)NC2CCCCC2)s1`: the Potency was inactive: > 76.9 µM.

As to `COCCCNc1nc2c(c(=O)[nH]c(=O)n2C)n1CC(O)COc1cccc(C)c1` (configuration not stated), the Potency was inactive: > 76.9 µM.

As for `COc1ccc(CCN2CC(C(=O)O)CC2=O)cc1` (configuration not stated), the Potency was inactive: > 76.9 µM.

With `CCOc1cccc2cc(-c3nnc(-c4ccccc4)o3)c(=O)oc12`, the Potency was inactive: > 76.9 µM.

Consider `COc1ccc(Br)cc1CNC(=O)C1CCCN(c2nc3ccccc3o2)C1` (configuration not stated), for which the Potency was inactive: > 76.9 µM.

With `CCC(C)NC(=O)c1ccccc1C(=O)NC(C)CC` (configuration not stated), the Potency was inactive: > 76.9 µM.

For `O=C(C1=C(O)C(=O)N(Cc2ccco2)C1c1cccnc1)c1cc2ccccc2o1` (configuration not stated), the Potency is inactive: > 76.9 µM.

In the case of `O=C(Nc1ccc(S(=O)(=O)N2CCCC2)cc1Cl)C1=COCCO1`, the Potency is inactive: > 76.9 µM.

Take `C=CCOC(=O)COc1ccc2c(C)c(CC)c(=O)oc2c1`: the Potency was inactive: > 76.9 µM.

For `COc1cccc(C2(O)CCN(C(=O)c3cccs3)CC2)c1`, the Potency was inactive: > 76.9 µM.

Turning to `O=C(NC1CCCCC1)NC1CC2CCC(C1)N2C(=O)NCc1ccccc1` (configuration not stated), the Potency was inactive: > 76.9 µM.

Regarding `C(=N\n1cnnc1)/C1CCCCC1`, the Potency was inactive: > 76.9 µM.

In the case of `Cc1ccc(Cn2ccc(NC(=O)c3cc(-c4ccc5c(c4)OCO5)on3)n2)cc1`, the Potency is inactive: > 76.9 µM.

For the compound `CN(CC(=O)NCc1ccco1)S(=O)(=O)c1ccc2c(c1)n(C)c(=O)c(=O)n2C`, the Potency is inactive: > 76.9 µM.

Take `CC(C)C(NC(=O)c1ccco1)C(=O)NCC(c1ccco1)N1CCCCC1` (configuration not stated): the Potency was inactive: > 76.9 µM.

Turning to `CCOc1ccccc1N(C(=O)c1ccco1)C(C(=O)NC1CCCC1)c1cccnc1` (configuration not stated), the Potency is inactive: > 76.9 µM.

Consider `Cc1ccc(N2CC(C(=O)NC3CCSC3=O)CC2=O)cc1` (configuration not stated), for which the Potency was inactive: > 76.9 µM.

Turning to `Cc1noc(C)c1C(=O)Nc1ccc2c(c1)CCC2`, the Potency is inactive: > 76.9 µM.

As to `CC(C)OCCCNc1ncnc2c1[nH]c1ccc(F)cc12`, the Potency entry is “inactive”.

In the case of `Cc1oc(C)c2c(=O)ccc3c(c12)OC(N)=C(C#N)C3c1ccccc1Cl` (configuration not stated), the Potency was inactive: > 76.9 µM.

As to `CN1CCN(c2ccccc2NC(=O)c2ccc(-c3ccccc3)cc2)CC1`, the Potency entry is “inactive”.

Consider `O=C1OC2(c3ccccc3)C3CCCC2C13`, for which the Potency is inactive: > 76.9 µM.

With `CCOc1cccc(C(=O)NC2CCCCC2)c1`, the Potency was inactive: > 76.9 µM.

For `COc1ccc(-n2c(COc3ccc(C)cc3)nnc2SCC(N)=O)cc1`, the Potency was inactive: > 76.9 µM.

Regarding `O=C(NCc1nc2ccccc2[nH]1)c1ccc(S(=O)(=O)N2CCOCC2)cc1`, the Potency is inactive: > 76.9 µM.

For `COc1ccc(CCNC(=O)Cc2nn(C)c(=O)c3ccccc23)cc1OC`, the Potency was inactive: > 76.9 µM.

In the case of `O=S(=O)(C/C(=C/CO)S(=O)(=O)c1ccccc1)c1ccccc1`, the Potency is inactive: > 76.9 µM.

In the case of `c1cc2[nH]snc2c2nc(C3CC3)nc12`, the Potency is inactive: > 76.9 µM.

Take `CC(NS(=O)(=O)c1ccc(Br)cc1)C(N)=O` (configuration not stated): the Potency is inactive: > 76.9 µM.

As to `CCN(CCO)C(=O)CC(c1ccccc1)c1cc(Br)ccc1O` (configuration not stated), the Potency was inactive: > 76.9 µM.

`Cc1cc(C)n(-c2nc3ccccc3c(=O)n2OC2CCCCC2)n1`: the Potency was inactive: > 76.9 µM.

With `Cc1ccc(-n2cnnn2)c2cccnc12`, the Potency was inactive: > 76.9 µM.

Take `CC(=O)Nc1ccc2c(c1)nc(CCN1CCOCC1)n2C`: the Potency is inactive: > 76.9 µM.

For `CCOC(=O)c1c(C)[nH]c(C(=O)C(C)OC(=O)c2cccc(OCc3c(C)noc3C)c2)c1C` (configuration not stated), the Potency is inactive: > 76.9 µM.

For `FC(F)(F)c1nnc2ccc(NCn3nnc4ccccc43)nn12`, the Potency is inactive: > 76.9 µM.

Take `CC(=O)c1cccc(NS(=O)(=O)N(C)C)c1`: the Potency was inactive: > 76.9 µM.

Regarding `COc1ccc(C)cc1NC(=O)c1[nH]c(C)c(C(C)=O)c1C`, the Potency is inactive: > 76.9 µM.

Consider `CCOC(=O)c1cccc(S(=O)(=O)N(CCO)Cc2cc3cc(OC)c(OC)cc3[nH]c2=O)c1`, for which the Potency was inactive: > 76.9 µM.

`O=C(NCc1ccco1)c1noc2c1CCCCC2`: the Potency is inactive: > 76.9 µM.

Turning to `O=C(COc1ccc(Cl)cc1)NC1CCSC1=O` (configuration not stated), the Potency was inactive: > 76.9 µM.

For the compound `NC(=O)CS(=O)(=O)c1nc2ccccc2n1CC(=O)N1CCCCC1`, the Potency is inactive: > 76.9 µM.

As to `CC(C)CC(c1nnnn1Cc1ccco1)N1CCN(c2cccc(Cl)c2)CC1` (configuration not stated), the Potency is inactive: > 76.9 µM.

Turning to `Cc1ccc(-c2nc3ncccn3c2NC(=O)C2CC2)cc1`, the Potency is inactive: > 76.9 µM.

As for `COc1ccc(CNS(=O)(=O)c2ccc(C3CNC(=O)C3)cc2)cc1` (configuration not stated), the Potency is inactive: > 76.9 µM.

On to `CCOc1cc(-c2ccccc2)nc(N)n1`, for which the Potency is inactive: > 76.9 µM.

Regarding `COc1cc(NC(=O)CSCc2cnn(-c3ccccc3)c2-n2cccc2)cc(OC)c1`, the Potency was inactive: > 76.9 µM.

On to `CC(C)(C)n1nnnc1CN(Cc1ccco1)Cc1cc2cc3c(cc2[nH]c1=O)OCO3`, for which the Potency is inactive: > 76.9 µM.

In the case of `COc1ccc(C(=O)OCCN2CCOCC2)cc1OC`, the Potency is inactive: > 76.9 µM.

Regarding `O=C(Cc1cccs1)NCc1ccccc1`, the Potency is inactive: > 76.9 µM.

As to `COc1cccc(C(=O)N2CCN(C(=O)c3cccc(F)c3)CC2)c1`, the Potency was inactive: > 76.9 µM.

Take `CSc1nc(C)c(C(=O)Nc2ccccc2)c(C)c1C#N`: the Potency is inactive: > 76.9 µM.

For `COCCn1nnnc1C(CC(C)C)N1CCN(c2cccc(OC)c2)CC1` (configuration not stated), the Potency is inactive: > 76.9 µM.

For the compound `CCOC(=O)c1c(NC(C)=O)no[n+]1[O-]`, the Potency is inactive: > 76.9 µM.

For `O=C(NCCc1c[nH]c2ccccc12)C1Cc2ccccc2CN1C(=O)c1ccco1` (configuration not stated), the Potency was inactive: > 76.9 µM.

On to `CCn1ccc(C(=O)Nc2ccc(N(C)C(C)=O)cc2)n1`, for which the Potency is inactive: > 76.9 µM.

On to `CC(O)/C=C/c1cccc[n+]1C` (configuration not stated), for which the Potency is inactive: > 76.9 µM.

Turning to `CC(C)C(NC(=O)c1cccc(S(=O)(=O)N2CCOCC2)c1)C(=O)NCCc1ccccn1` (configuration not stated), the Potency is inactive: > 76.9 µM.

As to `O=C(NCC(=O)N(CC1CCCO1)C(C(=O)NC1CCCCC1)c1ccc(F)cc1)c1ccco1` (configuration not stated), the Potency was inactive: > 76.9 µM.

Turning to `CCOC(=O)C1CCN(C(=O)CCNC(=O)c2cc(OC)c(OC)c(OC)c2)CC1`, the Potency was inactive: > 76.9 µM.

As for `Brc1cc2c(cc1COc1ccc(-c3nn[nH]n3)cc1)OCO2`, the Potency was inactive: > 76.9 µM.

As for `O=C(NCc1cccs1)[C@@H]1CSC2c3ccccc3C(=O)N21` (some centres not stated), the Potency entry was “inactive”.

Consider `Cc1occc1-c1nnc(SCC(=O)c2cc3ccccc3oc2=O)o1`, for which the Potency is inactive: > 76.9 µM.

Turning to `O=C(O)Cn1c2c(c3ccccc31)CCCC2`, the Potency is inactive: > 76.9 µM.

Regarding `COc1ccc(-c2cc(N3CCCC3)n3ncnc3n2)cc1`, the Potency is inactive: > 76.9 µM.

Turning to `COc1ccc(N2C(=O)NC3CC2(C)Oc2ccc(Br)cc23)cc1OC` (configuration not stated), the Potency was inactive: > 76.9 µM.

Regarding `O=C(C1CCCO1)N(Cc1ccccc1)c1ccccc1` (configuration not stated), the Potency was inactive: > 76.9 µM.

Take `C=CCNC(=O)C(C#N)c1nc2ccccc2nc1N1CCN(Cc2ccccc2)CC1` (configuration not stated): the Potency is inactive: > 76.9 µM.

For the compound `CCOC(=O)COc1ccc(S(=O)(=O)N2CCc3ccccc3C2)cc1`, the Potency is inactive: > 76.9 µM.

With `COc1ccc(C2CC(c3ccc(OC)cc3)n3nc(NC(=O)c4ccco4)nc3N2)cc1` (configuration not stated), the Potency is inactive: > 76.9 µM.

`COc1ccc(N2C(=O)C(CC(=O)Nc3ccccc3)N(Cc3ccc4c(c3)OCO4)C2=O)cc1` (configuration not stated): the Potency is inactive: > 76.9 µM.

As for `O=C(O)Cn1c(P(=O)(O)c2ccccc2)nc2ccccc21`, the Potency was inactive: > 76.9 µM.

Regarding `O=C1CC(c2ccc(Cl)cc2)n2nc(N3C(=O)c4ccccc4C3=O)nc2N1` (configuration not stated), the Potency is inactive: > 76.9 µM.
